“And” between values parts separate entries of the source, which are not always exact repeats. Equal values may be shown once.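 Grown in 96-well plates, cells were treated for 48 hours with each compound at five concentrations. Insufficient inhibition: endpoint recorded as highest concentration tested. At the GI50, growth is halved. TGI: total growth inhibition.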
System: NCI-H322M lung
Test: DTP human tumour cell line panel, 48 h

In the case of CC1OC(OC2C(OC(=O)[C@]34CCC(C)(C)C[C@H]3C3=CC[C@@H]5[C@@]6(C)CC[C@H](OC7OC(CO)C(O)C(O)C7OC7OC(CO)C(O)C(O)C7O)C(C)(C)[C@@H]6CC[C@@]5(C)[C@]3(C)CC4)OCC(O)C2O)C(O)C(O)C1OC1OCC(O)C(OC2OCC(O)C(O)C2O)C1O (stereo partly specified), the TGI is reported as 11.2 µM and 7.84 µM.

Point of comparison: COC(=O)c1cc(NC(=O)c2cc(NC(=O)Cc3c[nH]c4ccccc34)cn2C)cn1C, TGI 68.5 µM. Against it:
- O=C(/C=C/C(Cl)(Cl)Cl)Nc1ccc(Cl)cc1 — 2.2-fold lower, 31.3 µM
- NC(=O)C(=CNC(=S)Nc1ccc(S(=O)(=O)Nc2ccccn2)cc1)C(N)=O — higher, > 100 µM
- CCOC(=O)C(/C(=N\NC(=O)OC)C(=O)Nc1cc(OC)ccc1OC)c1cnc2ccccc2n1 (stereo unspecified) — higher, > 100 µM
- CCCCNC(=NCc1ccccc1)NC#N — higher, > 100 µM
- C=C1C(=O)O[C@H]2C/C(C)=C/CC[C@]3(C)CCC[C@](C)(CC[C@@H]12)O3 — not separable, > 50 µM
- Cc1nc(C)c(N2CCN(C(=O)O)CC2)c(=O)[nH]1 — higher, > 100 µM
- CC(C)(C)NC(=O)[C@H]1CC[C@H]2[C@@H]3CC[C@H]4NC(=O)C=C[C@]4(C)[C@H]3CC[C@]12C — higher, > 100 µM
- O=C(Nc1cccc(-n2cc(-c3ccncc3)c(-c3ccc(O)c(Cl)c3)n2)c1)c1cc(C(F)(F)F)cc(C(F)(F)F)c1 — not separable, > 50 µM
- [N-]=[N+]=Nc1ccc2c(c1)Sc1ccccc1N2CCCCN1CCN(Cc2ccc(C(=O)c3ccc(CSCC(N)C(=O)O)cc3)cc2)CC1 (stereo unspecified) — within 1.5-fold, 57.7 µM
- Nc1nnc(CCC(=O)Nc2cc(Cl)ccc2Cl)n1N — higher, > 100 µM
- COc1ccc2nc(-c3ccccc3)cc(Nc3cccc(C(C)=O)c3)c2c1 — 2-fold lower, 33.9 µM
- CN(C)C(=O)OC1=CC2CCC(C1)N2C (stereo unspecified) — higher, > 100 µM
- CCOC(=O)c1nc2ccccc2nc1Oc1ccc(C#N)cc1 — higher, > 100 µM
- CN1N=C(c2ccccc2)C(C(c2ccccc2[N+](=O)[O-])C2C(=O)N(C)N=C2c2ccccc2)C1=O (stereo unspecified) — higher, > 100 µM
- C/C(=N/NC(=O)C[n+]1ccccc1)C(CN(CC(C)C)CC(C)C)C(=O)Nc1ccc(C)cc1C (stereo unspecified) — higher, > 100 µM
- CCOC(=O)C(NO)C(Sc1ccccc1)c1ccc(OC)cc1 (stereo unspecified) — higher, > 100 µM
- O/C(=C\c1nc2ccccc2nc1/C=C(\O)c1ccc(F)cc1)c1ccc(F)cc1 — higher, > 100 µM
- O=C(N/N=C(/c1nc2ccc([N+](=O)[O-])cc2[nH]c1=O)C(O)c1ccc([N+](=O)[O-])cc1)c1ccncc1 (stereo unspecified) — higher, > 100 µM
- c1ccc(-c2c3c(nc4c2CC[C@H]4NC2=NCCN2)[C@@H](NC2=NCCN2)CC3)cc1 — higher, > 100 µM
- O=C(Nc1ccccc1C(F)(F)F)c1ccc(NC2=C(Cl)C(=O)N(Cc3ccccc3)C2=O)cc1 — higher, > 100 µM
- Cc1ccc(-c2nc3cc(Cl)c(Cl)cc3nc2C#N)cc1 — higher, > 100 µM
- C[C@@]1(Cc2ccccc2)C(=O)N2[C@@H](CO)C(c3ccccc3)O[C@]2(C)c2ccccc21 (stereo partly specified) — higher, > 100 µM
- Nc1ncnc2c1ncn2-c1ccc([N+](=O)[O-])cn1 — higher, > 100 µM
- COC(=O)c1nn2ccc3ccccc3c2c1C(=O)OC — higher, > 100 µM
- COc1cc(C(c2cccc3ccccc23)N2C(=O)CCC2C(=O)O)cc(OC)c1OC (stereo unspecified) — higher, > 100 µM
- COC1OC(CBr)C(OC(=O)c2ccccc2)C(OS(=O)(=O)c2ccc(C)cc2)C1Br (stereo unspecified) — higher, > 100 µM
- C/C(=N\n1c(O)c(C#N)cc(C#N)c1=O)c1ccncc1 — higher, > 100 µM
- COc1ccc(C(=O)O[C@H]2[C@H](O[C@H]3[C@@H](O)COC(O[C@H]4C[C@H]5[C@@H]6CC=C7C[C@@H](O)CC[C@]7(C)[C@H]6CC[C@]5(C)[C@H]4[C@H](C)C(=O)CCC(C)C)[C@@H]3OC(C)=O)OC[C@@H](O)[C@@H]2O)c(C)c1 (stereo partly specified) — 2.2-fold lower, 30.7 µM
- CN(C)Cc1ccc(C(C)(C)C)cc1-c1cc(C(C)(C)C)ccc1CN(C)C — higher, > 100 µM
- O=S(=O)(c1ccccc1)N1CN2CN(C1)CN(S(=O)(=O)c1ccccc1)C2 — higher, > 100 µM
- CC1(C(=O)O)C[C@](C)(C(=O)OCc2ccccc2)C[C@](C)(C(=O)OCc2ccccc2)C1 (stereo partly specified) — higher, > 100 µM
- CC(C)[Si]1(C(C)C)OCC2OC(n3c(C(=O)c4ccccc4)cc(=O)[nH]c3=O)CC2O[Si](C(C)C)(C(C)C)O1 (stereo unspecified) — 3-fold lower, 22.7 µM

Point of comparison: O=C(Nc1cccc(-n2cc(-c3ccncc3)c(-c3ccc(O)c(Cl)c3)n2)c1)c1cc(C(F)(F)F)cc(C(F)(F)F)c1, GI50 15.1 µM. Against it:
- CC(C)(C)NC(=O)[C@H]1CC[C@H]2[C@@H]3CC[C@H]4NC(=O)C=C[C@]4(C)[C@H]3CC[C@]12C — higher, > 100 µM
- COc1ccc2nc(-c3ccccc3)cc(Nc3cccc(C(C)=O)c3)c2c1 — within 1.5-fold, 16.6 µM
- O=C(Nc1ccccc1C(F)(F)F)c1ccc(NC2=C(Cl)C(=O)N(Cc3ccccc3)C2=O)cc1 — 2.1-fold higher, 31.4 µM
- Cc1ccc(-c2nc3cc(Cl)c(Cl)cc3nc2C#N)cc1 — higher, > 100 µM
- C/C(=N\n1c(O)c(C#N)cc(C#N)c1=O)c1ccncc1 — higher, > 100 µM
- COc1ccc(C(=O)O[C@H]2[C@H](O[C@H]3[C@@H](O)COC(O[C@H]4C[C@H]5[C@@H]6CC=C7C[C@@H](O)CC[C@]7(C)[C@H]6CC[C@]5(C)[C@H]4[C@H](C)C(=O)CCC(C)C)[C@@H]3OC(C)=O)OC[C@@H](O)[C@@H]2O)c(C)c1 (stereo partly specified) — within 1.5-fold, 10.7 µM
